The nature of test [1]: qHTS assay for small molecules that induce genotoxicity in human embryonic kidney cells expressing luciferase-tagged ATAD5 - cell viability (AID 651634; calls by dose curve; further: nearly all actives have a fitted effect of over 25% in size). Put shortly:
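HEK293T ATAD5-luc cells, 2,000/well; compound 15.5 hr, 37C/5% CO2; CellTiter-Fluor 30 min, 37C; fluorescence read.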
A general note: qHTS replaces the single test concentration by a dilution series.

Test [2] in a line: qHTS assay to identify small molecule antagonists of the glucocorticoid receptor (GR) signaling pathway - cell viability counter screen (AID 720693). Further: nearly all actives have a fitted effect of over 55% in size.
Test [3] in a line: qHTS assay to identify small molecule agonists of the constitutive androstane receptor (CAR) signaling pathway - cell viability counter screen (AID 1224836). Further: nearly all actives have a fitted effect of over 45% in size. Put shortly:
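Using CellTiter-Fluor, viability of HepG2 cells harbouring hCAR and CYP2B6-2.2kb was measured following 23 h incubation with a 15-concentration compound series plus PK11195 (0.75 uM final).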

Records with an inconclusive call do not appear. Unless noted, the call rests on the fitted dose curve; in most records, active means well fitted curve in the direction sought with a large enough effect in the repeat runs; inconclusive means weak or mixed curves; inactive means no such curve, though single readings can be large; an effect the other way counts as inactive or inconclusive. A structure can be active in one record and inactive in another. A number of entries come with more than one value. They are shown here; other results are not. There may be further records. The records of an entry are repeats in other runs, samples, wells, individuals or studies. A tag in brackets gives the origin of a value. Letters count within one entry.
Potency means the concentration at half of the fitted maximal effect.

On to `Oc1c(I)cc(Cl)c2cccnc12`, for which the Potency entry in test [1] was “inactive [sample A] and active: 27.3 µM [sample B]”.

As to `CCN(CC)C(=O)c1cc(S(=O)(=O)Cc2ccccc2)c(N2CCC(c3ccccc3)CC2)cc1N(CC)CCN(C)C`, in test [2], the Potency entry is “active: 23.9 µM [sample A] and inactive [sample B]”.

As for `Cc1c2ccccc2c(C)c2c1ccc1ccccc12`, in test [3], the Potency entry is “inactive [sample A] and active: 54.5 µM [sample B]”.

These data come from PubChem BioAssay (Tox21).
